Experimental data: the supplement of paper PMC6206098
± gives the uncertainty stated by the source. Shown are siRNA guide strands that differ only in the seed, positions 2 to 7.

Experiments:
M565 = experiment: cell viability relative to lipid-only control; higher = less toxic; conditions: concentration: 10 nM; 96 h; Mus musculus
Protocol: (§1)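 Arrayed screen of 4096 siRNA duplexes, each carrying one of all possible 6mer seeds at guide-strand positions 2-7 in a fixed neutral 19mer scaffold (constant flanks: U at position 1, then ACAUGUAAACCA, plus a 3' AA overhang). The passenger strand is 2'-O-methylated at positions 1-2 so only the guide strand loads into RISC. Duplexes were reverse-transfected at 10 nM with RNAiMAX in triplicate in 384-well plates; viability was read by CellTiter-Glo ATP content 96 h after transfection. Values are % viability normalised to lipid-only wells (HeyA8, H460, M565) or to siNT1 (3LL).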

H460 = experiment: as above; conditions: concentration: 10 nM; 96 h; Homo sapiens
Protocol: as §1

HeyA8 = experiment: as above; conditions: concentration: 10 nM; 96 h; Homo sapiens
Protocol: as §1

3LL = experiment: cell viability relative to siNT1 control; HeyA8 human ovarian and H460 human lung cancer; M565 mouse liver and 3LL mouse lung cancer; siNT1 is a non-toxic control siRNA; higher = less toxic; conditions: concentration: 10 nM; 96 h; Mus musculus
Protocol: as §1
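For cell viability relative to lipid-only control in this document: reverse lipid transfection in 384-well plates, in triplicate, of duplexes on a non-toxic 19mer backbone with passenger strand 2′-O-methylated at positions 1 and 2, luminescence viability read-out.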
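For cell viability relative to siNT1 control in this document: Luminescence-based viability of cells reverse transfected in 384-well plates with lipid-complexed siRNAs built on a non-toxic 19mer backbone whose passenger strand carries 2′-O-methyl groups at positions 1 and 2, triplicates.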

Row | Sequence | cell viability (M565) [%] | cell viability (H460) [%] | cell viability (HeyA8) [%] | cell viability (3LL) [%]
1 | UAAAAAAACAUGUAAACCAAA | 106 ± 20 | 87.2 ± 30 | 96.8 ± 4.2 | 112 ± 13
2 | UAAAAACACAUGUAAACCAAA | 91.9 ± 5.8 | 68 ± 7.7 | 95.7 ± 5.3 | 113 ± 8.3
3 | UAAAAAGACAUGUAAACCAAA | 94 ± 18 | 71.5 ± 7.2 | 97.9 ± 6 | 112 ± 11
4 | UAAAAAUACAUGUAAACCAAA |  |  |  | 116 ± 18
5 | UAAAACAACAUGUAAACCAAA | 111 ± 26 | 68.9 ± 13 | 92.8 ± 7.2 | 101 ± 13
6 | UAAAACCACAUGUAAACCAAA | 34.1 ± 8.2 | 38.3 ± 2.8 | 63.7 ± 3.7 | 56.8 ± 9.3
7 | UAAAACGACAUGUAAACCAAA | 99 ± 4.7 | 74.2 ± 8.1 | 101 ± 10 | 108 ± 7.4
8 | UAAAACUACAUGUAAACCAAA | 106 ± 18 | 87.6 ± 8.6 | 104 ± 7.5 | 107 ± 8.3
9 | UAAAAGAACAUGUAAACCAAA | 91.4 ± 13 | 70.8 ± 4.4 | 87.4 ± 1.2 | 110 ± 14
10 | UAAAAGCACAUGUAAACCAAA | 70.4 ± 18 | 65.8 ± 9.2 | 66.4 ± 4 | 91.7 ± 4.8
11 | UAAAAGGACAUGUAAACCAAA | 64.8 ± 21 | 70.5 ± 3.2 | 85.4 ± 6.9 | 109 ± 20
12 | UAAAAGUACAUGUAAACCAAA | 96.7 ± 12 | 59.7 ± 1.5 | 78.4 ± 3.5 | 110 ± 13
13 | UAAAAUAACAUGUAAACCAAA | 75.7 ± 6.5 | 70.5 ± 5.2 | 102 ± 6.8 | 121 ± 18
14 | UAAAAUCACAUGUAAACCAAA | 76.4 ± 18 | 69.1 ± 5.5 | 86.1 ± 5.7 | 88 ± 8.7
15 | UAAAAUGACAUGUAAACCAAA | 94.9 ± 17 | 80.7 ± 7.1 | 97.1 ± 5.6 | 117 ± 7.9
16 | UAAAAUUACAUGUAAACCAAA | 90 ± 4.9 | 65.6 ± 3.6 | 98.7 ± 13 | 115 ± 19
17 | UAAACAAACAUGUAAACCAAA | 92.7 ± 3.1 | 110 ± 6.7 | 101 ± 4 | 97.4 ± 3.1
18 | UAAACACACAUGUAAACCAAA | 94.4 ± 23 | 94.2 ± 31 | 107 ± 6.5 | 90.6 ± 15
19 | UAAACAGACAUGUAAACCAAA | 95.9 ± 38 | 71.9 ± 8.3 | 96.7 ± 9.2 | 116 ± 8.4

Row | Sequence | cell viability (M565) [%] | cell viability (H460) [%] | cell viability (HeyA8) [%] | cell viability (3LL) [%]
20 | UAAACAUACAUGUAAACCAAA | 85 ± 13 | 89.1 ± 4.6 | 98.1 ± 7.5 | 121 ± 15
21 | UAAACCAACAUGUAAACCAAA | 86.8 ± 9.1 | 62.8 ± 4.1 | 82.8 ± 16 | 80 ± 9.4
22 | UAAACCCACAUGUAAACCAAA | 19.6 ± 5.2 | 72.9 ± 17 | 27.5 ± 7.5 | 24.6 ± 3.9
23 | UAAACCGACAUGUAAACCAAA | 76 ± 11 | 79.5 ± 26 | 92.2 ± 21 | 93.8 ± 8.3
24 | UAAACCUACAUGUAAACCAAA | 85.8 ± 14 | 72.5 ± 8.2 | 68.7 ± 10 | 86.1 ± 3
25 | UAAACGAACAUGUAAACCAAA | 67.2 ± 10 | 77.6 ± 19 | 81.7 ± 16 | 86.1 ± 5.5
26 | UAAACGCACAUGUAAACCAAA | 77.4 ± 5.6 | 59.2 ± 4.6 | 79.8 ± 17 | 65.4 ± 4.7
27 | UAAACGGACAUGUAAACCAAA | 84.8 ± 13 | 69 ± 9.1 | 74.4 ± 16 | 83.1 ± 4.8
28 | UAAACGUACAUGUAAACCAAA | 73 ± 16 | 104 ± 9.1 | 80.7 ± 21 | 75.4 ± 5.8
29 | UAAACUAACAUGUAAACCAAA | 102 ± 8 | 85.8 ± 14 | 101 ± 7.8 | 112 ± 16
30 | UAAACUCACAUGUAAACCAAA | 90.5 ± 10 | 68.9 ± 7.3 | 110 ± 10 | 103 ± 9.9
31 | UAAACUGACAUGUAAACCAAA | 109 ± 18 | 85.5 ± 8.6 | 97.9 ± 7.2 | 110 ± 11
32 | UAAACUUACAUGUAAACCAAA | 91.4 ± 16 | 80.3 ± 16 | 108 ± 6.7 | 121 ± 13
33 | UAAAGAAACAUGUAAACCAAA | 89.2 ± 21 | 77.5 ± 10 | 101 ± 3.6 | 111 ± 14
34 | UAAAGACACAUGUAAACCAAA | 58.8 ± 8.1 | 79.2 ± 6.8 | 76.7 ± 8.5 | 95.6 ± 9.5
35 | UAAAGAGACAUGUAAACCAAA | 80.5 ± 20 | 72.4 ± 12 | 88 ± 6 | 108 ± 9.8
36 | UAAAGAUACAUGUAAACCAAA | 92.6 ± 9.3 | 76 ± 10 | 90.9 ± 4.2 | 94.1 ± 6.4
37 | UAAAGCAACAUGUAAACCAAA | 63.4 ± 9.4 | 78.1 ± 9.6 | 95.7 ± 7.4 | 110 ± 8.1
38 | UAAAGCCACAUGUAAACCAAA | 10.6 ± 4.3 | 57.7 ± 4.7 | 60.2 ± 5.1 | 38.5 ± 1.3

Row | Sequence | cell viability (M565) [%] | cell viability (H460) [%] | cell viability (HeyA8) [%] | cell viability (3LL) [%]
39 | UAAAGCGACAUGUAAACCAAA | 80.8 ± 5 | 76 ± 13 | 100 ± 2.6 | 102 ± 7.8
40 | UAAAGCUACAUGUAAACCAAA | 61.1 ± 18 | 51.1 ± 3 | 47.3 ± 3.5 | 53.4 ± 2.4
41 | UAAAGGAACAUGUAAACCAAA | 71.4 ± 16 | 78.8 ± 25 | 98.3 ± 5.9 | 107 ± 8.9
42 | UAAAGGCACAUGUAAACCAAA | 18.9 ± 4.7 | 49.6 ± 10 | 29.1 ± 2.2 | 31.3 ± 3.1
43 | UAAAGGGACAUGUAAACCAAA | 77.1 ± 7.4 | 71.1 ± 9.7 | 92.7 ± 10 | 109 ± 17
44 | UAAAGGUACAUGUAAACCAAA | 38.7 ± 12 | 60.9 ± 2.8 | 64.7 ± 9.3 | 79.6 ± 1.7
45 | UAAAGUAACAUGUAAACCAAA | 88.3 ± 19 | 80.1 ± 9.4 | 97 ± 8.1 | 110 ± 8.1
46 | UAAAGUCACAUGUAAACCAAA | 49.3 ± 1.4 | 80.7 ± 10 | 76.8 ± 8.8 | 37.5 ± 8.1
47 | UAAAGUGACAUGUAAACCAAA | 101 ± 32 | 79.7 ± 17 | 98 ± 8.1 | 109 ± 9
48 | UAAAGUUACAUGUAAACCAAA | 67.7 ± 6.4 | 63.5 ± 5.5 | 76.9 ± 3.9 | 79.7 ± 5.3
49 | UAAAUAAACAUGUAAACCAAA | 88.7 ± 21 | 68 ± 4.4 | 95.1 ± 5.2 | 113 ± 16
50 | UAAAUACACAUGUAAACCAAA | 105 ± 8.8 | 88.6 ± 10 | 102 ± 11 | 58.8 ± 4.2
51 | UAAAUAGACAUGUAAACCAAA | 97.5 ± 17 | 78.9 ± 8.8 | 105 ± 12 | 105 ± 8.7
52 | UAAAUAUACAUGUAAACCAAA | 94.8 ± 17 | 74.5 ± 8.2 | 101 ± 3.1 | 103 ± 5.4
53 | UAAAUCAACAUGUAAACCAAA | 89.9 ± 14 | 88.4 ± 14 | 103 ± 4.7 | 117 ± 7.4
54 | UAAAUCCACAUGUAAACCAAA | 69.8 ± 12 | 62 ± 6.6 | 72.3 ± 5.9 | 56.6 ± 7.4
55 | UAAAUCGACAUGUAAACCAAA | 91.1 ± 6.7 | 71.7 ± 6.3 | 103 ± 10 | 117 ± 11
56 | UAAAUCUACAUGUAAACCAAA | 109 ± 17 | 78.5 ± 15 | 93.1 ± 4.8 | 108 ± 16
